Sequences and labels used below:
B1: UUUAGGA (DNA:RNA)
RNA: GGGAGACCGGAAUUCAGAUUGUCCUUUAGGAUUAAAUCCCGUCGUAGCCACCA
DNA 1: CAATCTGAATTCCGGTCTCCC
DNA 2: TGGTGGCTACGACGGGATT
B2: CCCCUUC (DNA:RNA)
RNA: GGGAGACCGGAAUUCAGAUUGUCCCCCCUUCUUAAAUCCCGUCGUAGCCACCA
DNA 1: CAATCTGAATTCCGGTCTCCC
DNA 2: TGGTGGCTACGACGGGATT
B3: CAUGUGU (DNA:RNA)
RNA: B2 RNA with C26A, C27U, C28G, U30G, C31U
DNA 1: CAATCTGAATTCCGGTCTCCC
DNA 2: TGGTGGCTACGACGGGATT
B4: AACUCAC (DNA:RNA)
RNA: B2 RNA with C25A, C26A, C28U, U29C, U30A
DNA 1: CAATCTGAATTCCGGTCTCCC
DNA 2: TGGTGGCTACGACGGGATT
B5: AUAGUCG (DNA:RNA)
RNA: B2 RNA with C25A, C26U, C27A, C28G, U30C, C31G
DNA 1: CAATCTGAATTCCGGTCTCCC
DNA 2: TGGTGGCTACGACGGGATT
B6: AAAUUGC (DNA:RNA)
RNA: B2 RNA with C25A, C26A, C27A, C28U, U30G
DNA 1: CAATCTGAATTCCGGTCTCCC
DNA 2: TGGTGGCTACGACGGGATT
B7: CUGGCCU (DNA:RNA)
RNA: B2 RNA with C26U, C27G, C28G, U29C, U30C, C31U
DNA 1: CAATCTGAATTCCGGTCTCCC
DNA 2: TGGTGGCTACGACGGGATT
B8: AGCUCGC (DNA:RNA)
RNA: B2 RNA with C25A, C26G, C28U, U29C, U30G
DNA 1: CAATCTGAATTCCGGTCTCCC
DNA 2: TGGTGGCTACGACGGGATT
B9: AUGCUGA (DNA:RNA)
RNA: B1 RNA with U25A, U27G, A28C, G29U
DNA 1: CAATCTGAATTCCGGTCTCCC
DNA 2: TGGTGGCTACGACGGGATT
B10: GGCGGUU (DNA:RNA)
RNA: B2 RNA with C25G, C26G, C28G, U29G, C31U
DNA 1: CAATCTGAATTCCGGTCTCCC
DNA 2: TGGTGGCTACGACGGGATT
B11: UGCGGGA (DNA:RNA)
RNA: B1 RNA with U26G, U27C, A28G
DNA 1: CAATCTGAATTCCGGTCTCCC
DNA 2: TGGTGGCTACGACGGGATT
B12: CUUAUAA (DNA:RNA)
RNA: B1 RNA with U25C, G29U, G30A
DNA 1: CAATCTGAATTCCGGTCTCCC
DNA 2: TGGTGGCTACGACGGGATT
B13: CUGCUCG (DNA:RNA)
RNA: B2 RNA with C26U, C27G, U30C, C31G
DNA 1: CAATCTGAATTCCGGTCTCCC
DNA 2: TGGTGGCTACGACGGGATT
B14: UACCUUG (DNA:RNA)
RNA: B2 RNA with C25U, C26A, C31G
DNA 1: CAATCTGAATTCCGGTCTCCC
DNA 2: TGGTGGCTACGACGGGATT
B15: UACUUCU (DNA:RNA)
RNA: B2 RNA with C25U, C26A, C28U, U30C, C31U
DNA 1: CAATCTGAATTCCGGTCTCCC
DNA 2: TGGTGGCTACGACGGGATT
B16: GCUACGC (DNA:RNA)
RNA: B1 RNA with U25G, U26C, G29C, A31C
DNA 1: CAATCTGAATTCCGGTCTCCC
DNA 2: TGGTGGCTACGACGGGATT
B17: GAAUGUA (DNA:RNA)
RNA: B1 RNA with U25G, U26A, U27A, A28U, G30U
DNA 1: CAATCTGAATTCCGGTCTCCC
DNA 2: TGGTGGCTACGACGGGATT
B18: AGCACAC (DNA:RNA)
RNA: B2 RNA with C25A, C26G, C28A, U29C, U30A
DNA 1: CAATCTGAATTCCGGTCTCCC
DNA 2: TGGTGGCTACGACGGGATT
B19: UAAUAUG (DNA:RNA)
RNA: B2 RNA with C25U, C26A, C27A, C28U, U29A, C31G
DNA 1: CAATCTGAATTCCGGTCTCCC
DNA 2: TGGTGGCTACGACGGGATT
B20: UCGGGCG (DNA:RNA)
RNA: B1 RNA with U26C, U27G, A28G, G30C, A31G
DNA 1: CAATCTGAATTCCGGTCTCCC
DNA 2: TGGTGGCTACGACGGGATT
B21: CGGUCCG (DNA:RNA)
RNA: B2 RNA with C26G, C27G, C28U, U29C, U30C, C31G
DNA 1: CAATCTGAATTCCGGTCTCCC
DNA 2: TGGTGGCTACGACGGGATT
B22: GGGGGGG (DNA:RNA)
RNA: B1 RNA with U25G, U26G, U27G, A28G, A31G
DNA 1: CAATCTGAATTCCGGTCTCCC
DNA 2: TGGTGGCTACGACGGGATT
B23: AGGCAAA (DNA:RNA)
RNA: B2 RNA with C25A, C26G, C27G, U29A, U30A, C31A
DNA 1: CAATCTGAATTCCGGTCTCCC
DNA 2: TGGTGGCTACGACGGGATT
B24: CAUUAGG (DNA:RNA)
RNA: B1 RNA with U25C, U26A, A28U, G29A, A31G
DNA 1: CAATCTGAATTCCGGTCTCCC
DNA 2: TGGTGGCTACGACGGGATT
B25: UCGCGGU (DNA:RNA)
RNA: B1 RNA with U26C, U27G, A28C, A31U
DNA 1: CAATCTGAATTCCGGTCTCCC
DNA 2: TGGTGGCTACGACGGGATT
B26: AACGUGU (DNA:RNA)
RNA: B2 RNA with C25A, C26A, C28G, U30G, C31U
DNA 1: CAATCTGAATTCCGGTCTCCC
DNA 2: TGGTGGCTACGACGGGATT
B27: CUAAAAU (DNA:RNA)
RNA: B1 RNA with U25C, U27A, G29A, G30A, A31U
DNA 1: CAATCTGAATTCCGGTCTCCC
DNA 2: TGGTGGCTACGACGGGATT
B28: AAACUGU (DNA:RNA)
RNA: B2 RNA with C25A, C26A, C27A, U30G, C31U
DNA 1: CAATCTGAATTCCGGTCTCCC
DNA 2: TGGTGGCTACGACGGGATT
B29: UCUCGCU (DNA:RNA)
RNA: B1 RNA with U26C, A28C, G30C, A31U
DNA 1: CAATCTGAATTCCGGTCTCCC
DNA 2: TGGTGGCTACGACGGGATT
B30: ACGUCUA (DNA:RNA)
RNA: B2 RNA with C25A, C27G, C28U, U29C, C31A
DNA 1: CAATCTGAATTCCGGTCTCCC
DNA 2: TGGTGGCTACGACGGGATT
B31: AUGAGCU (DNA:RNA)
RNA: B1 RNA with U25A, U27G, G30C, A31U
DNA 1: CAATCTGAATTCCGGTCTCCC
DNA 2: TGGTGGCTACGACGGGATT

Numbering of substitutions follows the chain as printed; changes in the protein carry UniProt numbers. This is one part of the list.

The assay deals with T1, RBFOX1 RRM RbFoxmut (Fox-RRM*) (Homo sapiens, UniProt Q9NWB1 109-208, R118D;E147R;N151S;E152T).
T1 sequence: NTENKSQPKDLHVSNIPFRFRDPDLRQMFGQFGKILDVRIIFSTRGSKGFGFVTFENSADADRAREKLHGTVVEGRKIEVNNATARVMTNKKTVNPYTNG
Description: EMSA; HiTS-Eq, 1 nM pool, 10 min; buffer printed only for the single-RNA assays: 10 mM Tris pH 7.5, 150 mM NaCl, 3.4 mM EDTA, 0.001% NP-40, 30 C. Particulars: tags: His6 N-terminal (pET28a); label: 5' 32P. The essentials:
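Purified RbFox RRM (wild type or mutant) was equilibrated for 10 min in 50 µL with 1 nM of a 5′-radiolabelled pool of RNA with 7 randomized nucleotides, its flanks annealed to DNA oligonucleotides, across increasing protein concentrations. Free RNA was separated by 8% native PAGE, excised, reverse-transcribed, PCR-barcoded and sequenced on an Illumina HiSeq 2500. Relative association constants came from read-count changes of each variant against the control reaction, normalised to the cognate motif.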
(In general: Mobility shift assays separate free from complexed probe on a gel.)
With B1, the binding signal is 0.0776 KA relative to UGCAUGU. The same measure for B2: 0.066 KA relative to UGCAUGU.

B3: the binding signal was 0.213 KA relative to UGCAUGU. Under B4 stands 0.0803 KA relative to UGCAUGU; under B5, 0.112 KA relative to UGCAUGU.

For the molecule B6, the binding signal is 0.0959 KA relative to UGCAUGU.

In the case of B7, the binding signal was 0.106 KA relative to UGCAUGU. The same measure for B8: 0.0811 KA relative to UGCAUGU; for B9: 0.114 KA relative to UGCAUGU; for B10: 0.111 KA relative to UGCAUGU. Under B11 stands 0.0644 KA relative to UGCAUGU. Consider B12, for which the binding signal is 0.122 KA relative to UGCAUGU. Under B13 stands 0.233 KA relative to UGCAUGU; under B14, 0.1 KA relative to UGCAUGU. In the case of B15, the binding signal is 0.0707 KA relative to UGCAUGU.

For the molecule B16, the binding signal was 0.0957 KA relative to UGCAUGU. The same measure for B17: 1.18 KA relative to UGCAUGU; for B18: 0.0849 KA relative to UGCAUGU. For B19, the binding signal is 0.104 KA relative to UGCAUGU. As to B20, the binding signal was 0.0862 KA relative to UGCAUGU.

B21: the binding signal was 0.16 KA relative to UGCAUGU. Consider B22, for which the binding signal was 0.0675 KA relative to UGCAUGU.

On to B23, for which the binding signal was 0.0763 KA relative to UGCAUGU. Take B24: the binding signal is 0.0916 KA relative to UGCAUGU.

Turning to B25, the binding signal was 0.1 KA relative to UGCAUGU.

For the molecule B26, the binding signal was 0.122 KA relative to UGCAUGU. In the case of B27, the binding signal was 0.0447 KA relative to UGCAUGU. With B28, the binding signal is 0.073 KA relative to UGCAUGU. Under B29 stands 0.0966 KA relative to UGCAUGU; under B30, 0.0958 KA relative to UGCAUGU. With B31, the binding signal was 0.123 KA relative to UGCAUGU.

The values are drawn from PMC9911399, “Two distinct binding modes provide the RNA-binding protein RbFox with extraordinary sequence specificity”.
